This note sets out measurements from PMC10320511.

Test [1] addresses T1, FRQ D664A, D667A, V5H6-tagged (Neurospora crassa) (UniProt P19970).
T1 sequence: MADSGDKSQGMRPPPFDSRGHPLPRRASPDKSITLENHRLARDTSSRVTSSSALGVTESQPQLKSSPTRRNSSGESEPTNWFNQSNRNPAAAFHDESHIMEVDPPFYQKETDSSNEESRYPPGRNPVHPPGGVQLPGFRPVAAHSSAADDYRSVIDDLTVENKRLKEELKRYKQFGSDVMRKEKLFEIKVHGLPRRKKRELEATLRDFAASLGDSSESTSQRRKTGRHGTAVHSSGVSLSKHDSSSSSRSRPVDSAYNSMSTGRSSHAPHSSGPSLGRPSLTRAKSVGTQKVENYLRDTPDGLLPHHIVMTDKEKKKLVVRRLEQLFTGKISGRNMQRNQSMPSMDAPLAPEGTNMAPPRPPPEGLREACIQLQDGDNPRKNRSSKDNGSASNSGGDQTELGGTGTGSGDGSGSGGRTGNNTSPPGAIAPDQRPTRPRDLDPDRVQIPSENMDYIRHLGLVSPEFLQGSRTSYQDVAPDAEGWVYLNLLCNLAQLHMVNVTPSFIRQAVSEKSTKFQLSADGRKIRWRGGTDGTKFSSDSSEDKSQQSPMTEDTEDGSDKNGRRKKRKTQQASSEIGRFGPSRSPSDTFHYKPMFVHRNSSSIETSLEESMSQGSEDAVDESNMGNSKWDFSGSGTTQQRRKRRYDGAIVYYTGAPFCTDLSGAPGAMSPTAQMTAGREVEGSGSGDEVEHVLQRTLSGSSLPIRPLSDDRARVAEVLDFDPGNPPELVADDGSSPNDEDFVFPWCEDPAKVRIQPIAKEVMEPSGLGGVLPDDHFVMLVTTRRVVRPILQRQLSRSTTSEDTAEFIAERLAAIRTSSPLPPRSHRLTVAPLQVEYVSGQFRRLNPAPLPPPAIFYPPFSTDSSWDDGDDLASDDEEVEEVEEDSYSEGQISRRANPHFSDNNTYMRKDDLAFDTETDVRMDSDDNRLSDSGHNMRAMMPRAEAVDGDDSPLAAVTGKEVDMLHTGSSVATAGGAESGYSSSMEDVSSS
As to the kind of experiment: co-IP; V5H6-tagged FRQ (wild type or mutant) pulled down with V5 agarose from Neurospora lysate (cultures in the light, 25 °C); 50 mM Hepes pH 7.4, 137 mM NaCl, 10% glycerol, 0.4% NP-40; 4 °C, 2 h; Western blot with FRQ, FRH, WC-1 and WC-2 antibodies.

The target in test [2] is T2, FREQUENCY (FRQ), wild type, tagged with V5H6 (Neurospora crassa) (UniProt P19970).
T2 sequence: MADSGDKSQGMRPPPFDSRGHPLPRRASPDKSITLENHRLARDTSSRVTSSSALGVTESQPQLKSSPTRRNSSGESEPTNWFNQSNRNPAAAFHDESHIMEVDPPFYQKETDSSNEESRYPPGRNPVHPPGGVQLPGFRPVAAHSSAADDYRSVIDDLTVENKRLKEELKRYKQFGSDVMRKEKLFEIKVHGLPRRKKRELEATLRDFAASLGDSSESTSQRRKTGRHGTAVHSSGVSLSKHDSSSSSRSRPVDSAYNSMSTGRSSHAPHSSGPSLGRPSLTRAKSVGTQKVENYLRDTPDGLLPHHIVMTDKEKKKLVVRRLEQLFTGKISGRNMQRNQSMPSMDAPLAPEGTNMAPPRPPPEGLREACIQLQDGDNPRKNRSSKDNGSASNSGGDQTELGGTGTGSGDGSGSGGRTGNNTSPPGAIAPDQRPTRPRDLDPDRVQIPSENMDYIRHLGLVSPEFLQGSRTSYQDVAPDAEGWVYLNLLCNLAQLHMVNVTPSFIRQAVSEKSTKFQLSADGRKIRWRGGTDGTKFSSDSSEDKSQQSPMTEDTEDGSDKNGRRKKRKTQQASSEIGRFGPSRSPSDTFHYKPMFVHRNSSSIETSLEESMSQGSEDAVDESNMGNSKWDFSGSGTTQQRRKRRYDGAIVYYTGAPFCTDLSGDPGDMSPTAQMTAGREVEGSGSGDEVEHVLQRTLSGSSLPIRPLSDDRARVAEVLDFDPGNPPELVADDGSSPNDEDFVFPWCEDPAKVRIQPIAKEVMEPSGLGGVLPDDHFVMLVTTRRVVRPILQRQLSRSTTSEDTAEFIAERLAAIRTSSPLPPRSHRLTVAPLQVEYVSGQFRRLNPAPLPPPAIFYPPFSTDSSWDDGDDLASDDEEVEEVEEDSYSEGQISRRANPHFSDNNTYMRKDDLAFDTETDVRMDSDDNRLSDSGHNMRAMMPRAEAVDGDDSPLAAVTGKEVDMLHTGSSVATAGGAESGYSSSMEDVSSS
The description is as above.

These are yes or no findings as the source states them, for the method shown. In cells and extracts the contact can be indirect. Some entries that bind do so weakly or less than the wild type. Sequences can lack the tags named with a protein.

B1: White Collar-2 (WC-2) (protein, UniProt P78714 1-530)
chain: MSHGQPPPGSSMYGFGAMGMGSGMGSGMGSGMGTGMGTGMGTGMSASQMTSDPQDMMSLLDTSVFPGFDGMSMSLDVGDSMSNPFTPVSVPPPLPAGNAGPSHVGVCGGHGAPDQLFSPDDLIATSMSSAGPMIATPTTTTSGPSGGPSSGGGSTLTEFTKRRNWPAKVVEELQDWEHILDANGRIKHVSPSVEPLTGYKPPEIIDLFLRDLIHPDDVGVFTAELNEAIATGSQLRLFYRFRKKDGNWTIFETVGHAHIAAAKFAPNPQNQSPFCQAVFMMARPYPTKNAGLLDSFLEHKIENERLKRRIAELRREEQEEQEESHRTWRMSQEGRSDVTPSDDTATQMGMTPFYIPMNAQADVMMPPPSQPASSLNIALTRENLEGIAGSRPDSIREKMLRYEGNHADTIEMLTGLKYQEGERSHGITTGNASPTLIKGDAGIAIPLDRDPRTGEKKKKIKVAEEYVCTDCGTLDSPEWRKGPSGPKTLCNACGLRWAKKEKKKNANNNNNGGGIGGHNDIHTPMGDHMG
For the molecule B1, the results for the binding entry in test [1] and in test [2] were “binds weakly” and “binds”, respectively.

B2: FRQ-interacting RNA helicase (FRH) (protein, UniProt Q1K502 1-1106)
chain: MDDLFEVFEEQPRAQKKRKASPDVEMADGAAAAAPVANAAAAVTHPQAQAAPAPQKDNIDNNDNNNNNTTTSAVQPTIPNGDAAAAADDVQSPQSPHGLGDNKRRKKTDEAEPIMTDAFQTAESREVTGAQGFAPTEGESIVLSHNIQHQVALPPDLDYEYIPLSEHKPPAEPARTYSFKLDPFQALSVASIEREESVLVSAHTSAGKTVVAEYAIAQCLKKNQRVIYTSPIKALSNQKYRDFQAEFGDVGLMTGDVTINPTASCLVMTTEILRSMLYRGSEIMREVAWVVFDEIHYMRDKIRGVVWEETIILLPDKVRYVFLSATIPNAFQFAEWIAKIHRQACHVVYTDFRPTPLQNYFFPAGGKGILLIVDEKGNFKENNFNQAMAMIEEKKGTDSNDWSAKQKGKGKNKKTNKGGEAADEKADIAKIIKMILKKNFQPVIVFNFSKRECEQMALASSSMKFNAPDEENMVNKVFENALASLSEDDKNLPQISNILPLLRKGIGVHHSGLLPILKETIEILFQEGLIKVLFATETFSIGLNMPARTVVFTQVTKWDGQQRRPLTSSEYIQMAGRAGRRGLDDRGIVIMMVDDKLEPETARAIVVGNQDKLNSAFHLGYNMVLNLLRIEAISPEYMLERCFFQFQNAASVPQLERELISLQQERDAIIIPDESIVKDYYGVRQQLEEYNKDMVFVIQHPQNCLGFFQEGRLIHIKSPSGVDYGWGVLIKHIQRQTPKNGQPPYPEQESYVLDVLLKVSGDFNPKTRGEGPMPEGIMPAGKDSKNARWEVVPCLLNCLRALGQLRVFLPKRLESADEKDGVGKAVDEISRRFPDGIPILDPMENMGINDDSFKKLLRKIEVLESRLVANPLHNSPLLVELWNQYSLKMQLGEQIKEKKKAIARAHSVAQLDELKSRKRVLRRLGFINDAEVVQMKARVACEISSTEGHELLLAELLFNRFFNELSPEICACILSCFIFDEKIETQALKEELAKPFREIQAQARIIAKVSAESKLDVNEDEYVQSLKWQLMETVLAWAQGRPFSEICKMTNVYEGSLIRLFRRLEELLRQMAEAARVMGSEELKDKFELSLSKIRRDIVSFNSLYL
As for B2, the binding result in test [1] and in test [2] was “binds” each time.
